# Test results: PubChem BioAssay AID445 (National Center for Advancing Translational Sciences (NCATS), 2006)
# Among all 110,000 compounds or so, about 40 (0.04%) were called active. The shares of active, inactive and inconclusive entries below differ from those in the screen. Calls come from the whole dose curve; as a rule, active = well fitted curve in the direction sought with a large enough effect in the signal ratio (not every such curve was filed as active); inconclusive = small, poorly fitted or top-dose-only effect, or a change in a side signal; inactive = flat fitted curve, though single readings scatter; the % refers to the signal ratio. Potencies of inconclusive entries are doubtful fits and often do not repeat.
# Test: IkB Signaling;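 for IkBa stabilization activation: 0% = basal untreated cells and 100% = reference inhibitor full response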
# Conditions: ABC-DLBCL IkBa-CBG/CBR dual luciferase ratio (green luciferase fused to IkBa over red control in OCI-Ly3 lymphoma cells), 4 h; IkBa stabilization activation: at 57.1 µM (top of the series), scaled: untreated 0%, proteasome inhibitor 100% unless noted
# Outline: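 Luminescence ratio of IκBα-fused green versus native red beetle luciferase in OCI-Ly3 cells, 4 h post-doxycycline with compound; red signal alone, scaled from basal (0%) to zero light (-100%), flagged nonspecific or cytotoxic effects.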
# Potency is the fitted concentration of half-maximal effect.
Compound,IkBa stabilization activation,Potency
N#Cc1ccccc1NC(=O)c1ccc(-c2ccccc2Cl)o1,inconclusive: 2.66% [signal inhibitor],–
CCCNC(=O)c1cc(-c2ccc(O)cc2)on1,–,"inconclusive: 20 µM [signal inhibitor, partial curve]"
Cn1c(=O)n(CCc2ccccc2)c(=O)c2c1nc1n2CCCN1Cc1ccccc1,inactive: -0.331%,–
COC(=O)Cn1cnc2c(nnn2Cc2ccc(Cl)cc2)c1=O,inconclusive: -1.76% [signal inhibitor],–
CCc1ccc(C(=O)NC(Cc2c[nH]c3ccccc23)C(=O)OCC(=O)c2ccc(Br)cc2)cc1 (stereo not given),inconclusive: -0.378% [signal inhibitor],–
CCOC(=O)c1cnc2ccccc2c1Nc1cccc(OC)c1,inconclusive: 0.385% [signal inhibitor],–
Cc1cc(-c2ccc(C)c(S(=O)(=O)Nc3cccc(C#N)c3)c2)on1,inconclusive: 3.55% [signal inhibitor],–
COc1ccc(/C=C/C(=O)Nc2ccc(Cl)c(Cl)c2)cc1,–,"inconclusive: 25.1 µM [signal inhibitor, partial curve]"
CCCCn1c(NC(=O)c2ccccc2)c(C#N)c2nc3ccccc3nc21,–,"inconclusive: 31.6 µM [rising, partial curve]"
CCOc1ccc(CCNC(=O)c2c(C)oc3ncn(C)c(=O)c23)cc1,inactive: -0.592%,–
COc1ccc(OC)c(C2C(C#N)=C(N)Oc3c2c(C)nn3-c2cccc(Cl)c2)c1 (stereo not given),inconclusive: -2.9% [signal inhibitor],–
Fc1cccc(Cl)c1Cn1nnc2c(N3CCC4(CC3)OCCO4)ncnc21,inconclusive: 11% [signal inhibitor],–
O=C(/C=C/c1cn(CC(O)CN2CCCCCC2)c2ccccc12)c1ccc(Br)cc1 (stereo not given),inactive: 6.1%,–
C=CCC(CC=C)(CNC(=O)C(=O)Nc1ccc(C(=O)OCC)cc1)c1ccccc1,inactive: -1.52%,–
COC(=O)c1ccccc1NC(=O)c1cc2c(-c3ccc(OC)c(OC)c3)nn(C)c2s1,inconclusive: 2.88% [signal activator],–
O=S(=O)(Nc1ccc(-c2nc3cccnc3s2)cc1)c1cccs1,inactive: -2.63%,–
Cc1ccc(NC(=O)C(Cc2ccccc2)n2cccc2)cc1C (stereo not given),inconclusive: 4.18% [signal inhibitor],–
Cc1ccc(-c2nc3ccccn3c2Nc2ccc3c(c2)OCO3)o1,inconclusive: 1.38% [signal inhibitor],–
Cc1ccc2cc(C#N)c(NCCNC(=O)C3CC3)nc2c1C,inactive: -0.518%,–
CCCN(C(=O)c1cc2c(s1)-c1c(C)cccc1OC2)c1ccc(OCC)cc1,inconclusive: 2.07% [signal inhibitor],–
COc1ccc2[nH]c3c(=O)n(CCCCC(=O)N4CCC(C(N)=O)CC4)c(=S)[nH]c3c2c1,–,"inconclusive: 20 µM [signal inhibitor, partial curve]"
CCOC(=O)c1cc(-c2ccc(C)cc2)n(CC(=O)NC2CCCCCC2)c1C,inactive: 0.942%,–
Cc1cc2nc(-c3cccc(NC(=O)CSc4ccc(Cl)cc4)c3)oc2cc1C,inactive: -1.43%,–
Cc1cccc(-c2c3c(=O)n(C)c(=O)n(C)c3c3cnc4ccccc4n23)c1,inactive: -2.56%,–

Compound,IkBa stabilization activation,Potency
COc1ccc(C2c3[nH]c4ccc(OC)cc4c3CCN2C(=O)Nc2ccccc2)cc1 (stereo not given),inconclusive: -0.0516% [signal inhibitor],–
Cc1ccc(NC(=O)Cn2cc(S(=O)(=O)c3ccccc3)c(=O)c3cc4c(cc32)OCO4)cc1,inconclusive: -2.44% [signal inhibitor],–
COc1ccccc1Nc1nn2c(=O)c3ccc(C(=O)NC(C)c4ccccc4)cc3nc2s1 (stereo not given),inactive: -1.79%,–
Cc1cnc(CNc2ncnc3ccc(-c4ccc(N(C)C)cc4)cc23)cn1,"inactive: 5.14% [at 11.4 µM, scaled: untreated 0%, proteasome inhibitor 100%]",–
CC1(C)Cc2c(c(-c3ccccc3)[nH]c(=O)c2C#N)CO1,inactive: -0.736%,–
Cc1ccc(CNC(=O)CSc2nc3n[nH]c(C)c3c(=N)n2-c2cccc(C)c2)cc1,inconclusive: 1.52% [signal inhibitor],–
CCOc1ccc(NC(=O)Cn2cc(S(=O)(=O)N3CCN(c4ccccc4F)CC3)c3ccccc3c2=O)cc1,inconclusive: 3.28% [signal inhibitor],–
CCNc1ncc2nc(-c3ccc(F)cc3)c(=O)n(C)c2n1,"inactive: -6.63% [at 11.4 µM, scaled: untreated 0%, proteasome inhibitor 100%]",–
O=C(NCCc1csc2nc(-c3cccc(F)c3)nn12)c1ccc(Br)o1,inconclusive: 0.994% [signal inhibitor],–
COc1ccc(-c2noc(-c3ccc(N4CCC(C)CC4)c([N+](=O)[O-])c3)n2)cc1OC,inactive: -1.05%,–
COc1ccc(N(CC(=O)N2CCN(c3ccc(F)cc3)CC2)S(=O)(=O)c2c(C)n[nH]c2C)cc1,inconclusive: 3.86% [signal inhibitor],–
CCCn1c(SCC(=O)Nc2nnc(CC)s2)nc2c1c(=O)n(C)c(=O)n2C,inactive: -0.115%,–
COc1cc(OC)cc(-c2cc3nc(C)c(CCC(=O)NC(C)CCc4ccco4)c(C)n3n2)c1 (stereo not given),inconclusive: 7.23% [signal inhibitor],–
CCCCNc1nc2c(c(=O)n(Cc3ccc(Cl)c(Cl)c3)c(=O)n2C)n1C,inconclusive: -3.09% [signal inhibitor],–
COCc1cc(C)nc(N2CCOCC2)c1C#N,inactive: -1.77%,–
Cc1ccc(CNC(=O)c2cccc(-n3cnc4cccnc43)c2)cc1,inconclusive: 1.07% [signal inhibitor],–
O=C(NCCCN1CCCCCC1)[C@@H](c1ccccc1)C1CCCCC1,inactive: 0.653%,–
CCOc1ccc2nc(NC(=O)CN3CCC(n4nnc5cc(F)ccc54)CC3)sc2c1,inconclusive: 0.0131% [signal inhibitor],–
CN(C)c1nc2c(c(=O)[nH]c(=O)n2C)n1Cc1ccc(F)cc1,inactive: 2.98%,–
CCc1ccc(NC(=O)CCNS(=O)(=O)c2ccc3c(c2)CCCC(=O)N3)cc1,inconclusive: -4.24% [signal inhibitor],–
COc1cccc(C(=O)Nc2c3c(nn2-c2ccc(Cl)cc2)CS(=O)(=O)C3)c1,inconclusive: -3.22% [signal inhibitor],–
COc1ccc(C(=O)Nc2c(F)c(F)c(F)c(F)c2F)c(OC)c1,inactive: 1.23%,–
COc1ccc(NC(=O)c2oc3ccc(S(=O)(=O)N(C)C4CCCCC4)cc3c2C)cc1,inconclusive: 0.595% [signal inhibitor],–
COc1cccc(OC)c1/C(O)=C(\C#N)c1nc2ccccc2[nH]1,inactive: 1.11%,–

Compound,IkBa stabilization activation,Potency
Cc1nn(-c2ccccc2)c(C)c1C(=O)OCC(=O)N1CC(=O)Nc2ccccc21,inconclusive: 2.52% [signal inhibitor],–
CCOC(=O)c1ccc(NC(=O)CSc2nc3c([nH]c4ccccc43)c(=O)n2C)cc1,–,"inconclusive: 39.8 µM [signal activator, single point]"
Cc1cn2c(=O)cc(COc3ccccc3NC(=O)c3ccc(Cl)cc3)nc2s1,inactive: 0.152%,–
Cc1ccccc1-c1noc(-c2cc(-c3ccc(F)cc3)n[nH]2)n1,–,"inconclusive: 25.1 µM [signal inhibitor, partial curve]"
CC(=O)C(C)Oc1ccc2c3c(c(=O)oc2c1)CCCC3 (stereo not given),inactive: -5.48%,–
CCCCc1nc2ccccc2n1CC(=O)N(COCC)c1c(C)cccc1CC,inconclusive: 5.75% [signal inhibitor],–
Cc1cc(C)cc(NC(=O)C2CCN(S(=O)(=O)c3ccc4c(c3)oc(=O)n4C)CC2)c1,inconclusive: 6.02% [signal inhibitor],–
Oc1cc2ccccc2cc1-c1n[nH]c(=S)o1,–,"inconclusive: 25.1 µM [signal inhibitor, partial curve]"
CCOC(=O)c1ccc(NC(=O)c2nn(CC)cc2Br)cc1,inactive: 2.27%,–
CCOC(=O)c1sc(NC(=O)c2ccc(Cl)s2)cc1C,inactive: 1.64%,–
COc1ccc(/C=C/C(=O)Nc2ccc3nc(N4CCCCC4)cc(C)c3c2)cc1OC,inconclusive: 5.95% [signal inhibitor],–
CCc1c(C)c2ccc(OCC(=O)OC(C)C)c(C)c2oc1=O,inactive: 1.02%,–
CC(C)c1ccc(Nc2c(-c3ccco3)nc3ccccn23)cc1,inconclusive: 18.1% [signal inhibitor],–
COc1cc(NC(=O)c2ccc(-n3cnc4cccnc43)cc2)cc(OC)c1,inconclusive: 1.67% [signal inhibitor],–
Cc1ccc(S(=O)(=O)N(CC(=O)Nc2ccc3c(c2)OCO3)c2ccc(C)c(Cl)c2)cc1,inconclusive: 2.32% [signal inhibitor],–
CCOC(=O)c1ccc(NC(=O)c2ccc(C)c(S(=O)(=O)N3CCOCC3)c2)cc1,inconclusive: -7.24% [signal inhibitor],–
COCCn1c(=O)c(-c2cn(C)c3ccccc23)nc2cnc(Oc3cccc(Cl)c3)nc21,"inactive: -0.224% [at 11.4 µM, scaled: untreated 0%, proteasome inhibitor 100%]",–
CC1CCN(C(=O)C2CCN(C(=O)c3cc4sccc4n3Cc3ccc(F)cc3)CC2)CC1,inconclusive: 6.18% [signal inhibitor],–
COC(=O)Cc1c(C)c2cc3c(c(C)c2oc1=O)OCN(CCc1ccc(OC)cc1)C3,inactive: -0.0878%,–
CCN(CCN(C)C)C(=O)C1CCN(S(=O)(=O)c2c(C)noc2/C=C/c2ccccc2F)CC1,inactive: -2%,–
Cc1cc(C)c(NC(=O)Cn2nnc(-c3nc(-c4ccccc4)no3)c2N)c(C)c1,inconclusive: 4.99% [signal inhibitor],–
O=C(Nc1ccc2c(c1)nc1n2CCSC1)c1ccco1,–,"inconclusive: 15.8 µM [signal inhibitor, partial curve]"
